Results published in PubChem BioAssay AID1508623 (National Center for Advancing Translational Sciences (NCATS), 2021).
Hit rate of the full screen: of about 48,000 compounds, about 450 (0.94%) were called active. Not shown: some 19% with an inconclusive outcome. The call rests on the fitted dose curve; in most records, active means well fitted inhibition curve with a large enough effect; inconclusive means small, poorly fitted or top-dose-only effect; inactive means no such curve, though single readings can be large or run the other way. The list shows a part of the results.

assay: Primary qHTS for Identification of Small Molecule Inhibitors of Huntingtin Promoter Activity; details: HEK293 HTT promoter firefly luciferase reporter (activity 0% = vehicle and -100% = no light), 24 h; series mostly up to 57.5 µM; activity change, negative = inhibition: at the top concentration; further: nearly all actives have a fitted effect of over 50% in size
How it was run: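 Quantitative HTS used concentration series of up to 57.5 uM final on HEK293 luciferase reporter cells, 24 h at 37 degrees C. Readout was Dual-Glo firefly luminescence.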

Activity change, negative = inhibition, inactive:
CC(=O)c1sc2c(c1C)c(=O)n(-c1ccc(Cl)cc1)c(=O)n2Cc1cc(=O)n2cc(Cl)ccc2n1 -4.93%
Cc1nn(C(=O)c2ccc(Cl)cc2)c(C)c1Sc1ccc(Cl)cc1 -1.36%
NC(=O)c1nnn(Cc2cc(Cl)c(C(=O)c3ccc(Cl)cc3)c(Cl)c2)c1N 1.93%
CCCSc1nc2sc3c(c2c(=O)n1-c1ccccc1)CCC(C)C3 (stereo not given) -14.3%
Cc1cc(NC(=O)CSc2nc(-c3ccccc3F)nc3c2c(=O)n(C)c(=O)n3C)no1 -7.56%
Cc1cc(O)c(C(c2ccccc2)N2CCC(C)CC2)c(=O)n1Cc1ccco1 (stereo not given) -12%
CC(=O)c1ccc(NC(=O)CSc2nnc3ccc(-c4ccc(F)cc4)nn23)cc1 -1.6%
CCN(C(=O)c1sc2nc3n(c(=O)c2c1C)CCCC3)c1ccccc1F -13.5%
Cc1ccc(CCNC(=O)c2cc(-c3ccccc3)n[nH]2)cc1 -18.6%
CN(C)c1ccc(C(CNC(=O)c2ccc(C(C)(C)C)cc2)N2CCCC2)cc1 (stereo not given) -12.1%
COc1ccc(CNC(=O)CCc2c(C)nn(-c3ccc(N4CCOCC4)nn3)c2C)c(OC)c1 -13.6%
Cc1cn2c(=O)cc(COc3ccc(NC(=O)c4ccc(C(C)(C)C)cc4)cc3)nc2s1 -12.4%
Cc1ccc(C)c(NC(=O)c2cnn(-c3ccc(F)cc3F)c2C2CCNCC2)c1 -19.6%
CCCC12CN3CC(CCC)(CN(C1)C3c1ccc(OCc3ccccc3)cc1)C2=O (stereo not given) -4.8%
Cc1cccc(C)c1NC(=O)CCSc1nc(-c2ccc3c(c2)OCO3)cc(C(F)(F)F)n1 -5.14%
COc1ccccc1NC(=O)CN(C)S(=O)(=O)c1cccc2cccnc12 -10.2%
Cc1ccc(Nc2ccc(N3CCN(C(=O)c4cccc([N+](=O)[O-])c4)CC3)nn2)cc1 -28.8%
O=C(CSc1ncc2c(n1)-c1ccccc1N(Cc1ccc(Cl)cc1)S2(=O)=O)c1ccc(Cl)cc1 -15.6%
Cc1cccc(NC(=O)c2cccc(N3CCCS3(=O)=O)c2)c1 49.8%
O=C(COc1ccc(F)cc1)Nc1ccc(OCc2cc(=O)n3ccsc3n2)cc1 -4.86%
Cc1ccc(CNC(=O)CN2Cc3ccccc3C2=O)cc1 5.54%
Cc1ccccc1NC(=O)Cn1c(=O)n(CCC(=O)N2CCc3ccccc3C2)c(=O)c2ccccc21 -12.1%
COc1ccc(NC(=O)CCS(=O)(=O)c2cc3c(cc2C)NC(=O)CO3)cc1Cl -6.1%
Cc1ccc(C2CC(=O)n3nc(-c4ccc(F)cc4)nc3S2)cc1 (stereo not given) 81.4% [at 11.5 µM]
Cc1ccc(Cl)cc1NC(=O)c1sc2nc(C)c(C)c(C)c2c1N 19.6%
COc1ccc(C2c3c(-c4ccccc4)n[nH]c3C(=O)N2c2ccc(C(=O)O)cc2)c(OC)c1 (stereo not given) -9.17%
Cc1ccc(NC(=O)Cn2c(=O)n(CCC(=O)N3CCc4ccccc4C3)c(=O)c3ccccc32)c(C)c1 -18.2%
COc1cc(NC(=O)Cn2c(-c3ccccc3)cc(C(C)=O)c2C)cc(OC)c1 -22.2%
COC(=O)c1ccc2c(c1)sc(=NC(=O)c1ccc(S(=O)(=O)N3CCCCC3)cc1)n2C 0.55%
OCCN(CCO)c1nc(N2CCCCC2)c2nc(N(CCO)CCO)nc(N3CCCCC3)c2n1
Cc1ccc(-c2c(CN3CCN(c4cccc(C)c4C)CC3)csc2C)cc1 -17.4%
Cc1cccc(C)c1NC(=O)CSc1nc(-c2cccs2)cc(C(F)(F)F)n1 -23.3%
Cc1cn2c(=O)cc(COc3ccc(C(C)(C)C)cc3)nc2s1 -12.8%
CC(C)CCn1c(SCc2c(F)cccc2Cl)nc2ccsc2c1=O -7.74%
CN(c1nccc(=O)[nH]1)C1CCN(c2nc3ccccc3n2Cc2ccc(F)cc2)CC1
N#Cc1ccccc1Cn1c(SCC(=O)NCc2ccccc2)nc2ccccc21 -11.9%
CCc1cccc2c(-c3ccccc3)nc(SCC(=O)Nc3ccc(OC)cc3)nc12 -19.3%
CCOc1ccc2nc(NC(=O)c3nc(SC(C)C)ncc3Cl)sc2c1 -15.3%
C[N+](C)(C)CC(=O)O -5.02%
CC1CCN(C(=O)Cn2c(=O)n(-c3ccc(Cl)cc3)c(=O)c3c4c(sc32)CCC4)CC1 16.7%
O=C(Cn1c(=O)c2cccn2c2ccc(F)cc21)NCc1cccc(Cl)c1 1.65%
O=C(O)c1ccccc1C(=O)Nc1ccc(S(=O)(=O)Nc2nccs2)cc1 -3.39%
Cc1ccccc1NC(=O)Cn1c(=O)n(CCCCCC(=O)NCc2ccc3c(c2)OCO3)c(=O)c2sccc21 -19.8%
Cc1c(Cl)cccc1NC(=O)CSc1nc(=O)n(CCN2CCOCC2)c2c1CCC2 -22.7%
CCOc1ccc(NC(=O)c2sc3nc(-c4ccc(OC)cc4)cn3c2C)cc1 -10.4%
COc1ccc(-n2ccn(CC(=O)Nc3ccccc3C(F)(F)F)c(=O)c2=O)cc1OC -1.13%
COc1ccc(-c2nsc(NC(=O)c3ccccc3Br)n2)cc1 32%
COc1cc(NC(=O)C2CCCN(S(=O)(=O)c3cn(C)cn3)C2)cc(OC)c1 (stereo not given) -13.7%
CCOC(=O)c1cc2c(=O)n3ccccc3nc2n(CC(C)C)c1=NC(=O)C(C)Oc1ccccc1 (stereo not given) 1.76%
CCOc1ccc(NC(=O)CCS(=O)(=O)c2cc3c4c(c2)CCN4C(=O)CC3)cc1 -12.8%
CC(=O)OC(C)OC(=O)C(C)c1ccc(-c2ccccc2)c(F)c1 (stereo not given) 5.35%
O=C(NC1CC(=O)N(c2ccc(Cl)cc2)C1)C(=O)c1c[nH]c2ccccc12 (stereo not given) -0.147%
Cc1ccc(NC(=O)CCS(=O)(=O)c2ccc3c(c2)oc(=O)n3C)c(Br)c1 -16.9%
Cc1ccc2nc(COc3cccc(NC(=O)COc4ccc(F)cc4)c3)cc(=O)n2c1 33.2%
Cc1c(Cl)cccc1Nc1nn2c(=O)c3ccc(C(=O)N(C)Cc4ccccc4)cc3nc2s1 -30.4%
COc1ccc(NC(=O)c2cc3c(C)nn(-c4ccccc4)c3s2)c(OC)c1 -9.74%
Cc1cc(C)cc(-n2c(SCC(=O)NC3CCCCC3)nc3c([nH]c4ccccc43)c2=O)c1 -8.58%
CCOc1cc(S(=O)(=O)NCCc2c(C)[nH]c3ccc(C)cc23)ccc1Br -23.9%
COc1ccc(N2CCN(C(=O)CSCc3ccc(C)cc3)CC2)cc1 -12.5%
O=c1[nH]c(SCc2c(F)cccc2Cl)nc2c1CCCC2 -16.6%
COCCNC(=O)c1[nH]c2cc(C)ccc2c1Sc1ccc(Cl)cc1 19%
O=C(Nc1cccc(-c2nc3ccccc3o2)c1)c1cccc2c(Cl)cccc12 -15.9%
CC(C)OC(=O)OCOP(=O)(CO[C@H](C)Cn1cnc2c(N)ncnc21)OCOC(=O)OC(C)C
O=C(COc1ccccc1)OCc1cc(=O)n2nc(-c3cccs3)sc2n1 -17.3%
Cc1c(Cl)cccc1NC(=O)c1cc2nc(-c3ccc4c(c3)OCO4)cc(C(F)(F)F)n2n1 4.76%
CCc1nn(CC(=O)NC(C)CC)c(=O)c2cc3occc3n12 (stereo not given) -17.6%
COc1ccc(CNC(=O)c2cnc3ccc(C)cn3c2=O)cc1 -16%
CC(C)(C)OC(=O)N1CCC(c2c(C(=O)Nc3ccc4c(c3)OCO4)cnn2-c2ccccc2)CC1 -5.47%
O=C(NCc1ccc2c(c1)CCN2C(=O)c1ccncc1)c1ccccc1F -25%
COC(=O)c1ccccc1NC(=O)CCS(=O)(=O)c1nc(-c2ccc3c(c2)OCO3)cc(C(F)(F)F)n1 6.08%
COc1ccccc1CNc1ncnc2c1nnn2C -13.5%
CCOCCCn1c(=N)c(S(=O)(=O)c2ccc(Cl)cc2)cc2c(=O)n3cccc(C)c3nc21 8.29%
COC(=O)c1c(-c2cccs2)csc1NC(=O)c1ccc(C(C)C)cc1 -0.494%
COc1ccccc1NC(=O)C(=O)NCC(c1cccnc1)N1CCc2ccccc2C1 (stereo not given) -6.34%
COc1ccc(-n2nc(C(=O)Nc3cc(C)ccn3)c3c4ccccc4n(C)c3c2=O)cc1Cl 20.2%
CC(=O)Nc1nonc1-c1nnc(SCc2ccccc2)n1C -12.8%
CCc1ccc(NC(=O)Cn2c(=O)c3cc(Cl)ccc3n3nncc23)cc1 4.44%
CCOc1ccc(-c2cc(C(=O)NCCc3ccc(OC)c(OC)c3)[nH]n2)cc1 -8.58%
CN1CC(=O)N(CC(=O)Nc2ccc(OC(F)(F)F)cc2)c2ccccc2C1=O -1.05%
O=c1c2oc3ccccc3c2n(Cc2cccc(F)c2)c(=O)n1Cc1ccc2c(c1)OCO2 -12.3%
COC(=O)c1cccc(CN2C(=O)SC(Nc3ccc(C)cc3)C2=O)c1 (stereo not given) -10.8%
C=Cc1ccc(Cn2c(SCC(=O)N3CCN(c4ccc(F)cc4)CC3)nc3ccccc32)cc1 -23.3%
Cc1cccc(NC(=O)/C(C#N)=C/c2ccc(C)o2)c1 17.6%
CCOC(=O)c1ccc(NC(=O)CCc2nc3cccnc3n2Cc2cccs2)cc1 -16%
C[C@@]12CCC[C@H]1[C@@H]1CC[C@H]3C[C@@H](O)CC[C@]3(C)[C@H]1CC2 7.91%
Cc1ccc(S(=O)(=O)c2cn(CC(=O)Nc3ccc(Cl)cc3)c3ccc(F)cc3c2=O)cc1C -13.7%
COc1cc(C2CC(=O)Nc3c2c(=O)n(C)c2ncnn32)cc(OC)c1OC (stereo not given) -1.74%
CCOC(=O)c1c(NC(=O)c2cc(CC)on2)sc(C(C)=O)c1C -1.62%
CC(=O)c1ccc(N2CCN(c3ccc4cc(S(=O)(=O)N5CCC(C)CC5)ccc4n3)CC2)cc1 -19.2%
CSc1ccc(CCNC(=O)c2c(C)oc3ncn(C)c(=O)c23)cc1 3.36%
COc1ccc(CCN2CCC(CNC(=O)c3cnn(-c4cccc(Cl)c4)c3C3CCN(C(=O)OC(C)(C)C)CC3)CC2)cc1 -16.5%
Cc1cccc(Cn2c(Cc3ccccc3)nc3ccccc32)c1 -20.2%
O=C(CN1c2ccccc2S(=O)(=O)c2ccccc21)Nc1cccc(C(F)(F)F)c1 -20.2%
CCOC(=O)c1c(S(=O)(=O)NCC(=O)N(C)Cc2ccccc2)c(C)n(C)c1C -5.18%
COc1ccccc1N1CCN(c2ncnc3c2c(-c2ccccc2)cn3-c2cccc(C)c2)CC1 -21.2%
